Measurements from the supplement of paper PMC12067230.
The data scatter; read single values as rough.

assay: amyloid nucleation score relative to library mode (yeast Sup35 reporter selection) (log enrichment difference); higher = more amyloid nucleation; sequences are the first 22 residues of the Bri2 peptide extended by up to 12 random residues; conditions: random library (experiment): 1;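 active = nucleation score significantly above 0 at FDR 0.05; inactive = not significantly above 0 or absent from output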
Method: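 Random C-terminal extensions of the 22-aa Bri2 peptide by 12 NNK codons; premature stops give shorter extensions. Peptides were fused to the Sup35 nucleation domain in S. cerevisiae [psi-pin-] and selected on -ADE-URA plates for 7 d at 30 °C. The nucleation score is log(output/input), centred to the mode of each of 3 independent libraries (1 input, 3 technical output replicates), with duplicates merged. Sequences absent from the output ('random_non_nuc') were imputed with the library mode value, so they are given as censored (<). Nucleators are scores significantly >0 at FDR 0.05.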
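Further: [psi-pin-] Saccharomyces cerevisiae expressing SupN fusions, induced by 100 µM Cu2SO4, selected 7 d at 30 °C without adenine and uracil, scored by deep sequencing of output versus input.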

Sequence	amyloid nucleation score
EASNCFAIRHFENKFAVETLICASMWQEWRDVRG	-0.0385
EASNCFAIRHFENKFAVETLICCYVA	5.92
EASNCFAIRHFENKFAVETLICYKVFSRTHKMSS	inactive
EASNCFAIRHFENKFAVETLICVYDNKPKRSVWV	inactive
EASNCFAIRHFENKFAVETLICWDCGQGGLCFTY	7.95
EASNCFAIRHFENKFAVETLICWERACASWNGWR	3.98
EASNCFAIRHFENKFAVETLICTEGDLAGGCVW	-0.0194
EASNCFAIRHFENKFAVETLICVHGTHTDSGGGR	0.188
EASNCFAIRHFENKFAVETLICVSSGSLWCSHCR	inactive
EASNCFAIRHFENKFAVETLICNTWWL	5.09
EASNCFAIRHFENKFAVETLICRQWASHPLSACW	inactive
EASNCFAIRHFENKFAVETLICNLDRIQRLRTVR	inactive
EASNCFAIRHFENKFAVETLICIP	inactive
EASNCFAIRHFENKFAVETLICVEIGYYQVVTCR	inactive
EASNCFAIRHFENKFAVETLICLS	inactive
EASNCFAIRHFENKFAVETLICTLLTTGFSLVLW	3.47
EASNCFAIRHFENKFAVETLICGLLTETGMSK	inactive
EASNCFAIRHFENKFAVETLICLPQFLSGTSACW	7.25
EASNCFAIRHFENKFAVETLICGGL	inactive

Sequence	amyloid nucleation score
EASNCFAIRHFENKFAVETLICRSTGQVISMLSL	inactive
EASNCFAIRHFENKFAVETLICWLAPWRSMGPHA	inactive
EASNCFAIRHFENKFAVETLICCYHRCQVANFFR	-0.195
EASNCFAIRHFENKFAVETLICWRYWHWRKAYRE	inactive
EASNCFAIRHFENKFAVETLICHCSWDLICGTAA	inactive
EASNCFAIRHFENKFAVETLICTEVSWVMLNVCE	inactive
EASNCFAIRHFENKFAVETLICAMGPGPKPQRAV	inactive
EASNCFAIRHFENKFAVETLICPGDSLTWVRVVG	inactive
EASNCFAIRHFENKFAVETLICYHWKDIFTPLEG	3.87
EASNCFAIRHFENKFAVETLICAYTMEFRNIS	inactive
EASNCFAIRHFENKFAVETLICVYY	inactive
EASNCFAIRHFENKFAVETLICCREHGPTPSRQM	2.2
EASNCFAIRHFENKFAVETLICDRPEEV	inactive
EASNCFAIRHFENKFAVETLICVFHSKGCMSGGW	inactive
EASNCFAIRHFENKFAVETLICWAGMLQGDLRCY	inactive
EASNCFAIRHFENKFAVETLICWSCWWRRRSGTG	6.12
EASNCFAIRHFENKFAVETLICKVFPGIRGAVLP	0.618
EASNCFAIRHFENKFAVETLICALLRSKRWDCCC	3.61
EASNCFAIRHFENKFAVETLICMGVTSVRSITRC	2.31

Sequence	amyloid nucleation score
EASNCFAIRHFENKFAVETLICTGVRWAWWGRHG	-0.717
EASNCFAIRHFENKFAVETLICFAYSNKSDVEGN	5.48
EASNCFAIRHFENKFAVETLICCYRCDKNQTWYV	3.4
EASNCFAIRHFENKFAVETLICLKWGHVIYDCLT	inactive
EASNCFAIRHFENKFAVETLICLDVKVGDHDRVS	inactive
EASNCFAIRHFENKFAVETLICIRVKDYGGCTNG	inactive
EASNCFAIRHFENKFAVETLICWTPVTCEYHAVG	inactive
EASNCFAIRHFENKFAVETLICTRVGPSTAEVCG	2.03
EASNCFAIRHFENKFAVETLICVMRRVPIAVGVG	inactive
EASNCFAIRHFENKFAVETLICVGTAKMLLPRLP	0.247
EASNCFAIRHFENKFAVETLICTSRFLSWTLVSS	0.655
EASNCFAIRHFENKFAVETLICCLPDCSNLWLCY	4.88
EASNCFAIRHFENKFAVETLICERGMGAVVMARG	inactive
EASNCFAIRHFENKFAVETLICNVRVRVFMIVPA	0.321
EASNCFAIRHFENKFAVETLICGMRGWLDWWVTV	inactive
EASNCFAIRHFENKFAVETLICPGE	-0.102
EASNCFAIRHFENKFAVETLICKQVCSLIICRVW	inactive
EASNCFAIRHFENKFAVETLICLVELYFLERGYR	0.165

same assay, conditions: random library (experiment): 2

Sequence	amyloid nucleation score
EASNCFAIRHFENKFAVETLICRKYCTHGELRCL	inactive
EASNCFAIRHFENKFAVETLICMLNVPTRSSGLW	6.07
EASNCFAIRHFENKFAVETLICINATI	inactive
EASNCFAIRHFENKFAVETLICHAYHQVSFYGTD	4.71
EASNCFAIRHFENKFAVETLICDHI	inactive
EASNCFAIRHFENKFAVETLICCLMSQGRSFSNG	8.76
EASNCFAIRHFENKFAVETLICIDRFFSGNARLL	3.01
EASNCFAIRHFENKFAVETLICYTGTGNHASVSK	3.14
EASNCFAIRHFENKFAVETLICCVLCLICLSSNK	0.86
EASNCFAIRHFENKFAVETLICWGPVTCWEAWRT	3.55
EASNCFAIRHFENKFAVETLICCQFVSWCTPNVS	7.34
EASNCFAIRHFENKFAVETLICGWCSV	7.06
EASNCFAIRHFENKFAVETLICVNWCPMDIMD	6.82
EASNCFAIRHFENKFAVETLICKLVTNMATIVMR	-0.223
EASNCFAIRHFENKFAVETLICCNVYFPSFFDRL	9.1
EASNCFAIRHFENKFAVETLICCLVENRRNWCIA	5.59
EASNCFAIRHFENKFAVETLICKCMRWGNWDGYG	2.85
EASNCFAIRHFENKFAVETLICQKSMWKEDLERR	2.96

Sequence	amyloid nucleation score
EASNCFAIRHFENKFAVETLICIDAIWNVWLLVY	inactive
EASNCFAIRHFENKFAVETLICMCPWWCYGRFNS	7.21
EASNCFAIRHFENKFAVETLICLIGWILVTYVCA	-0.409
EASNCFAIRHFENKFAVETLICFSYCSGISANAG	6.29
EASNCFAIRHFENKFAVETLICIVL	6.93
EASNCFAIRHFENKFAVETLICRGDPYRASCPYA	inactive
EASNCFAIRHFENKFAVETLICVIGDYFNPNIIR	5.13
EASNCFAIRHFENKFAVETLICNSQW	inactive
EASNCFAIRHFENKFAVETLICLGR	-0.419
EASNCFAIRHFENKFAVETLICIVMCLCFEDPVN	inactive
EASNCFAIRHFENKFAVETLICLGFHHLLKWS	-0.215
EASNCFAIRHFENKFAVETLICKFILKMRMTVVW	inactive
EASNCFAIRHFENKFAVETLICMRRKSSAVTVQV	0.598
EASNCFAIRHFENKFAVETLICFICCSSGVVHVM	8.75
EASNCFAIRHFENKFAVETLICCYESLSLDRYSL	3.17
EASNCFAIRHFENKFAVETLICAIYFIARLRPLF	inactive
EASNCFAIRHFENKFAVETLICCIFSNVWGEDLW	8.79

same assay, conditions: random library (experiment): 3

Sequence	amyloid nucleation score
EASNCFAIRHFENKFAVETLICRILN	0.315
EASNCFAIRHFENKFAVETLICDLKGVGRIPECN	inactive
EASNCFAIRHFENKFAVETLICIGI	1.85
EASNCFAIRHFENKFAVETLICFPPVISNAQFVD	inactive
EASNCFAIRHFENKFAVETLICPPVS	4.14
EASNCFAIRHFENKFAVETLICGRSKN	inactive
EASNCFAIRHFENKFAVETLICMCLVPSCVMVYR	inactive
EASNCFAIRHFENKFAVETLICYAYSGSILDLHG	2.83
EASNCFAIRHFENKFAVETLICGISRVVKENRAA	inactive
EASNCFAIRHFENKFAVETLICMYRVKTMHRSKA	inactive
EASNCFAIRHFENKFAVETLICARRCSSFRIGKS	inactive
EASNCFAIRHFENKFAVETLICRLAGLWLRSPVV	inactive
EASNCFAIRHFENKFAVETLICASLALKVTGMSR	inactive
EASNCFAIRHFENKFAVETLICCDTIYPCLCFSV	7.87
EASNCFAIRHFENKFAVETLICTPLKSQVCMA	inactive
EASNCFAIRHFENKFAVETLICYKCANVCMVTSG	inactive
EASNCFAIRHFENKFAVETLICESLHSMGSLRVV	inactive
EASNCFAIRHFENKFAVETLICTSGGMPRTYEDS	inactive
EASNCFAIRHFENKFAVETLICTNWLVSEGEGRG	0.649
EASNCFAIRHFENKFAVETLICYMHTKLYRCCMC	inactive
EASNCFAIRHFENKFAVETLICGMT	0.593
EASNCFAIRHFENKFAVETLICTSFQD	inactive
EASNCFAIRHFENKFAVETLICRTLAEMNACSWS	3.7
EASNCFAIRHFENKFAVETLICVR	-0.353
EASNCFAIRHFENKFAVETLICFTLTLFGVHISY	inactive
